In all, about 310,000 compounds went through this assay and about 14,000 (4.5%) showed an effect of 50% or more. The effect is printed as a negative number. This is one part of the list.
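Also: peak tail current of the secondary pulse compared with the same well before compound.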

The assay deals with human ether-à-go-go-related gene (hERG) potassium channel (human, UniProt Q12809). The assay can be described thus: primary screen, population patch clamp on CHO cells stably expressing hERG.
human ether-à-go-go-related gene (hERG) potassium channel, sequence (Q12809 whole entry, looked up): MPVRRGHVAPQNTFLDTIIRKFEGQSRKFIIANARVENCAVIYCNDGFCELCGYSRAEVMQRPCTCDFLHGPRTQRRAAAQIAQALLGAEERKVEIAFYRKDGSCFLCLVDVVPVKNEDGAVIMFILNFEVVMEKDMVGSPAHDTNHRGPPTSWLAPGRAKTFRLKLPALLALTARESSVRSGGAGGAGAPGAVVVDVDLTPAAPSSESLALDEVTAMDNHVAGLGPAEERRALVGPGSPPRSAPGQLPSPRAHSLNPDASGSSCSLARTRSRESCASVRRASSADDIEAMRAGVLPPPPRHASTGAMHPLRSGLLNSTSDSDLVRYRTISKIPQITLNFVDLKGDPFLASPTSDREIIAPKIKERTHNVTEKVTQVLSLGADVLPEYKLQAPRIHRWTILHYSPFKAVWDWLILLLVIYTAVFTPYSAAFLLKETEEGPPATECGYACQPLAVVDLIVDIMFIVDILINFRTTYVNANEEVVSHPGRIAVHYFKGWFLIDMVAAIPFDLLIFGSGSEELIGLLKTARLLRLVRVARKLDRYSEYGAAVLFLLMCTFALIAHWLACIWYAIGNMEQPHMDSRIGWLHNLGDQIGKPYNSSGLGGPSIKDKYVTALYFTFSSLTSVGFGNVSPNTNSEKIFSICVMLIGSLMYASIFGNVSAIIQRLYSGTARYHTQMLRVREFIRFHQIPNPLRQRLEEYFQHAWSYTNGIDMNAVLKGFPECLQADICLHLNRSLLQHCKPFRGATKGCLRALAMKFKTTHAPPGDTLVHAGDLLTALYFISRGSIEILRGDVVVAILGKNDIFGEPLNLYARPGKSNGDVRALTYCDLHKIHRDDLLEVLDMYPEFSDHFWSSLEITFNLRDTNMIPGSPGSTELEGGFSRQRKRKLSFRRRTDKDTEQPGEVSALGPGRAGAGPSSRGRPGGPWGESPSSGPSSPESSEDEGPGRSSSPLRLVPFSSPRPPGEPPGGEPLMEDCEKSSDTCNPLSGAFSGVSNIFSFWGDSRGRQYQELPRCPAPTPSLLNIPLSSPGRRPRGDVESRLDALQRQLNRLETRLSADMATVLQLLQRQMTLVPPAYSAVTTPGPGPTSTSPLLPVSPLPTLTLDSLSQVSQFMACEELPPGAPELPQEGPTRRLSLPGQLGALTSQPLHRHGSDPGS
Consider `Cc1cc([N+](=O)[O-])nn1CCC(=O)NC1CCCCCC1`, for which the “hERG current change (%, negative = inhibition) at 10uM” value was 15.7%.
As for `O=C(NCCc1csc(-c2cccnc2)n1)c1cccc(Cl)c1`, the figure is -17.7%.
Take `COC(=O)C1=C(c2ccccc2OCc2ccccc2)C[C@@H]2CC[C@H]1N2C(=O)NCc1ccc(OC)c(OC)c1`: the “hERG current change (%, negative = inhibition) at 10uM” value is -0.237%.
Take `COc1ccc(N(CC(=O)N2CCN(Cc3ccc4c(c3)OCO4)CC2)S(=O)(=O)c2ccc(F)cc2)cc1`: the “hERG current change (%, negative = inhibition) at 10uM” value is -84.6%.
Turning to `C/C(CC(=O)N(C(C)C)C(C)C)=N\NC(=O)c1ccccc1Br`, the “hERG current change (%, negative = inhibition) at 10uM” value worked out at 14.5%.
With `NS(=O)(=O)c1ccc(NC=C2C(=O)OC3(CCCCC3)OC2=O)cc1`, the “hERG current change (%, negative = inhibition) at 10uM” value is recorded as 3.45%.
For the compound `O=c1cc(N2CCc3ccccc3C2)[nH]c(=O)n1C1CCCCC1`, the “hERG current change (%, negative = inhibition) at 10uM” value was 13.6%.
Take `Cc1nc(/N=C\N(C)C)sc1C(=O)Nc1ccccc1`: the “hERG current change (%, negative = inhibition) at 10uM” value is reported as 5.79%.
`CCOC(=O)c1cc2c(=O)n3ccccc3nc2n(CC2CCCO2)c1=NC(=O)/C=C/c1ccccc1` (stereo not shown): the “hERG current change (%, negative = inhibition) at 10uM” value is reported as -35.7%.
On to `COc1ccc(NC(=S)N2CCCC2)cc1OC`, for which the “hERG current change (%, negative = inhibition) at 10uM” value worked out at 9.97%.
Under `CC(=O)Cc1nsc(NC(=O)c2ccccc2)n1` stands 14.9%.
As for `CCN1CCN(Cc2nnc(-c3ccccc3)o2)CC1`, the figure is -0.608%; as for `CC(C)Oc1cc(NC(=O)CS(=O)CC(=O)N(C)C)c(Cl)cc1Cl` (stereo not shown), 1.76%.
In the case of `CCCOC(=O)c1ccc(NC(=O)c2ccc(Br)o2)cc1`, the “hERG current change (%, negative = inhibition) at 10uM” value is reported as -19.3%.
`CC(=O)c1c(C)[nH]c(C(=O)OCC(=O)N2CC(C)OC(C)C2)c1C` (stereo not shown): the “hERG current change (%, negative = inhibition) at 10uM” value amounted to 20.7%.
With `CC(=O)N(Cc1ccccc1)c1c(N)nc(N)[nH]c1=O`, the “hERG current change (%, negative = inhibition) at 10uM” value worked out at 12.7%.
As for `C/C(=N/NS(=O)(=O)c1ccc(Cl)cc1)c1cccc(NC(=O)c2ccncc2)c1`, the figure is 18.9%.
As for `Cc1c(N2C(=O)/C(=C\c3ccccc3O)SC2=S)c(=O)n(-c2ccccc2)n1C`, the figure is 30.5%; as for `CC(C)/C=C/CN1CCCC(N2CCN(c3cccc(Cl)c3)CC2)C1` (stereo not shown), -50.7%; as for `O=C(NCc1ccccc1)C1C(=O)N(Cc2ccccc2)C(=O)C1C1(O)CCCC1` (stereo not shown), 2.87%.
`CCN(C(=O)CSc1nc2ccccc2o1)c1c(N)n(Cc2ccccc2)c(=O)[nH]c1=O`: the “hERG current change (%, negative = inhibition) at 10uM” value is on record as -17.1%.
Regarding `COc1cccc(C=NCCCN=Cc2cccc(OC)c2O)c1O`, the “hERG current change (%, negative = inhibition) at 10uM” value came out at 10.6%.
In the case of `O=C(Cn1nnc(-c2ccccc2NC(=O)c2cccs2)n1)Nc1ccccc1`, the “hERG current change (%, negative = inhibition) at 10uM” value was 8.79%.
Under `Cc1ccc(N2C(=O)CCSC23C(=O)Nc2ccccc23)cc1` (stereo not shown) stands -6%; under `O=C(COC(=O)c1ccc(Cl)c(S(=O)(=O)N2CCCCC2)c1)NCC1CCCCC1`, -9.88%.
Take `CCn1c(SCC(=O)NCc2ccco2)nc2c1c(=O)n(C)c(=O)n2C`: the “hERG current change (%, negative = inhibition) at 10uM” value is listed as 11.2%.
In the case of `Cc1nc(C)c(C(=O)N(c2ccccc2F)C(C(=O)NCC2CCCO2)c2ccccc2)s1` (stereo not shown), the “hERG current change (%, negative = inhibition) at 10uM” value came to 8.94%.
Under `CCOc1ccccc1OCCC(=O)OCC(=O)Nc1c(C)nn(-c2ccccc2)c1C` stands 1.41%; under `CC1CCc2nc(NC(=O)CN3CCN(c4ccccc4)CC3)sc2C1` (stereo not shown), -6.29%; under `COc1ccc(S(=O)(=O)N2CCC(C(=O)N[C@@H](C)C(=O)NCc3ccccc3OC)CC2)cc1`, -2.2%.
As for `C=CCN1C(=O)C(CC(=O)Nc2ccccc2)N(Cc2ccccn2)C1=S` (stereo not shown), the figure is -3.29%; as for `Cn1c(=O)c2c(nc(Cl)n2CC(=O)NC2(C#N)CCCCC2)n(C)c1=O`, 4.92%; as for `CCOc1ccc(/C=C/C(=O)Nc2ccc(OC)cc2[N+](=O)[O-])cc1`, 7.64%.
Under `COc1ccccc1-c1cn[nH]c1-c1ccc(OCc2ccc(F)cc2)cc1O` stands 5.24%; under `O=[N+]([O-])c1ccc(-c2c[nH]c(=S)[nH]2)cc1`, -13%.
As to `O=C(C1=C[C@@H](c2ccc3c(c2)OCO3)C[C@@H](OCCCCO)O1)N1CCOCC1`, the “hERG current change (%, negative = inhibition) at 10uM” value is reported as 7.64%.
For `O=C(CSc1ncccn1)N/N=C/c1ccc(OC2CSC2)cc1`, the “hERG current change (%, negative = inhibition) at 10uM” value is -15.8%.
Regarding `CSc1cccc(CN2CCC(Oc3cccc(C(=O)N4CCCC4)c3)CC2)c1`, the “hERG current change (%, negative = inhibition) at 10uM” value is recorded as -44.4%.
Under `Cc1cccc(N2C(=O)C(Oc3ccc(Cl)cc3Cl)C2C=O)c1C` (stereo not shown) stands -31.9%; under `O=C(NC(=S)NCCC1=CCCCC1)c1ccco1`, 5.07%.
As for `COc1ccc2c(C)c(CCC(=O)NC3CC3)c(=O)oc2c1C`, the “hERG current change (%, negative = inhibition) at 10uM” value was 14.4%.
For the compound `COc1ccccc1C(c1c(N)n(C)c(=O)n(C)c1=O)C(C)[N+](=O)[O-]` (stereo not shown), the “hERG current change (%, negative = inhibition) at 10uM” value was -0.426%.
Consider `CCOC(=O)N1CCN(C(=O)CSc2nc(CC)nc3c2c(=O)n(C)c(=O)n3C)CC1`, for which the “hERG current change (%, negative = inhibition) at 10uM” value is -14.1%.

The record behind these values is paper PMC4336329 (PLoS ONE, 2015).
